Reference: PubChem BioAssay AID662 (National Center for Advancing Translational Sciences (NCATS), 2007)
Several values for one entry are separate records, joined by “and”; a condition that tells them apart may be missing. Identical values can stand only once. The campaign covered roughly 71,000 compounds. About 1,800 (2.5%) were called active. This list was built around the results that the source calls inconclusive (neither active nor inactive); the mix of calls is not that of the screen. The call rests on the fitted dose curve; in most records, active means well fitted activation curve with a large enough effect in the signal ratio, with a control signal flat (not every such curve was filed as active); inconclusive means small, poorly fitted or top-dose-only effect, or effect the other way, or a change in a side signal; inactive means flat fitted curve, though single readings scatter; the % refers to the signal ratio. Potencies of inconclusive entries are doubtful fits and often do not repeat.

Assay: Cell signaling CRE-BLA (Fsk stim); on activity change, negative = inhibition: % of control where 0% means no effect
Conditions: CHO CRE-bla reporter (cAMP response element driving beta-lactamase), forskolin EC10, beta-lactamase ratio
Procedure, shortened: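 The 460nm/530nm emission ratio after CCF4 loading defined %Activity, from which AC50 values were obtained. CRE-bla CHO cells received compound dilution series together with an EC10 level of NKH 477 for 3 hours at 37 degrees Celsius.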

[1] = activity change, negative = inhibition: at 38.2 µM (top of the series) unless noted
Potency means the concentration at half of the fitted maximal effect; tags describe the fitted curve by direction and shape.

O=S(=O)(/N=C(/Nc1cc(N2CCOCC2)ncn1)c1ccc(F)cc1)c1ccccc1
activity change, negative = inhibition [1]: inconclusive: 5.21%

CCOC(=O)N1CCC(NC(=O)CCCN2C(=O)CSc3ncccc32)CC1
activity change, negative = inhibition [1]: inconclusive: 4.53%

CC(C)c1nc(N2CCCC2)c(C#N)c2c1CCCC2
Potency [1]: inconclusive: 25.1 µM [rising, single point]

Cc1ccc(S(=O)(=O)Nc2ccc3ncccc3c2)cc1
Potency [1]: inconclusive: 1.26 µM [rising, full curve, poor fit]

O=C(NCCc1ccccc1)c1cnn2c(C(F)F)cc(C3CC3)nc12
Potency [1]: inconclusive: 10 µM [rising, partial curve]

Cc1cc(CNC(=O)C(C)Cc2ccccc2)nn1C (configuration not stated)
Potency [1]: inactive

O=C(c1ccc(Br)o1)N1CCN(C/C=C/c2ccccc2)CC1
activity change, negative = inhibition [1]: inconclusive: 28.7%

COc1ccc(NC(=O)N(C2CCCCC2)C2CCN(C(C)C)CC2)c(OC)c1
Potency [1]: inactive

Cc1[nH]c2ccccc2c1-c1cc(-c2cc(-c3c(C)[nH]c4ccccc34)on2)no1
activity change, negative = inhibition [1]: inactive: 2.01% [at 7.6 µM]

CCOC(=O)N1CCc2c(sc3c2C(=O)NC(c2ccc(-c4ccc(Cl)cc4)o2)N3)C1 (configuration not stated)
Potency [1]: inactive

O=C(CN1CCOc2ccccc21)NC1CCCCCCC1
Potency [1]: inactive

c1ccc(CNCCN2CCNCC2)nc1
Potency [1]: inactive

COc1ccc(S(=O)(=O)N2CCC(C(=O)N3CCOCC3)CC2)cc1
Potency [1]: inactive

CCN1CCc2c(sc(N)c2C#N)C1
activity change, negative = inhibition [1]: inconclusive: 4.72%

COc1cc(OC)cc(-c2nc3nc(C)c(CCC(=O)NCc4ccco4)c(C)n3n2)c1
activity change, negative = inhibition [1]: inconclusive: 0.0848%

O=S(=O)(Nc1ccc(-c2cn3ccsc3n2)cc1)c1ccc2c(c1)OCCO2
activity change, negative = inhibition [1]: inconclusive: 26.2%

O=C1CC(c2ccco2)Cc2nc(Nc3nc(-c4ccccc4)c4ccccc4n3)ncc21 (configuration not stated)
activity change, negative = inhibition [1]: inconclusive: -3.29%

CC(C)OCCCNC(=O)c1cc2c(=O)n(C)c3ccccc3c2n1C
Potency [1]: active: 2.51 µM

Cn1ncc2c1ncn1nc(CCc3ccccc3)nc21
Potency [1]: inactive

CC(C)(C)Cc1nnc(NS(=O)(=O)Cc2ccccc2)s1
activity change, negative = inhibition [1]: inconclusive: 19.9% [at 7.6 µM]

CCCCc1c(O)nc(SCC(=O)NCC2CCCO2)[nH]c1=O (configuration not stated)
activity change, negative = inhibition [1]: inconclusive: -0.535%

Cc1sc2c(c1C)c(=O)n(-c1ccccc1)c1nncn21
Potency [1]: inconclusive: 10 µM [rising, single point]

Cc1cc(OCc2nn[nH]n2)c2c(C)c(CC(=O)O)c(=O)oc2c1
Potency [1]: inactive

CCc1ccc(C2CC(c3ccccc3)n3ncnc3N2)cc1 (configuration not stated)
Potency [1]: inactive

COc1ccc(Cn2c(-c3ccco3)nc3oc4ccccc4c(=O)c3c2=O)cc1
activity change, negative = inhibition [1]: inconclusive: -21.7%

Oc1ccc(CNCc2ccccc2)c2cccnc12
activity change, negative = inhibition [1]: inactive: -1.17% [at 7.6 µM]

CC(=O)NCCN=C(C)c1sc2ccccc2c1O
activity change, negative = inhibition [1]: inconclusive: 1.55%

Nc1ncnc2nc[nH]c12.Nc1ncnc2nc[nH]c12.[Cl][Pt]([Cl])([Cl])[Cl]
activity change, negative = inhibition [1]: inactive: 0.614% [at 7.6 µM]

O=C(CCc1nc(-c2cccs2)no1)Nc1cnc2ccccc2c1
activity change, negative = inhibition [1]: inconclusive: -21.6%

CCOC(=O)c1cnc(-n2cc(C)cn2)nc1Nc1ccccc1OC
activity change, negative = inhibition [1]: inconclusive: 5.17%

CC1CCN(CCc2nc3cc(NS(=O)(=O)c4ccc(F)cc4)ccc3n2C)CC1
Potency [1]: inactive

Cn1c(=O)c2[nH]cnc2n(-c2ccccc2)c1=O
Potency [1]: inconclusive: 12.6 µM [rising, partial curve]

COc1ccc(CCNC(=O)C2CCN(S(=O)(=O)c3cccc4nonc34)CC2)cc1OC
activity change, negative = inhibition [1]: inconclusive: 6.47%

COc1cccc(CNn2c(-c3cccc(C)c3)nc3ccccc3c2=O)c1O
Potency [1]: inconclusive: 20 µM [rising, single point]

CCCCC(=O)Nc1ccc(NC(=O)c2cc(OC)c(OC)c(OC)c2)cn1
Potency [1]: inconclusive: 12.6 µM [rising, partial curve]

CCn1c(=O)cc(OCC(=O)NCc2ccc(C)o2)c2ccccc21
Potency [1]: inconclusive: 10 µM [rising, partial curve]

CCc1ccc(CN2C(=O)CCC2(C)C(=O)NC2CCCC2)cc1 (configuration not stated)
activity change, negative = inhibition [1]: inconclusive: 11.3%

COCCCNC(=O)CCCC(=O)NCCCOC
activity change, negative = inhibition [1]: inconclusive: 2.98%

CCOc1cccc2cc(C(=O)N3CCc4ccccc4C3)c(=O)oc12
Potency [1]: inactive

CCCCN(C)C(=O)CCC(=O)Nc1ccc2nc(N3CCOCC3)cc(C)c2c1
Potency [1]: inconclusive: 7.94 µM [rising, partial curve, poor fit]

CCn1c(=O)c2c(n3cnnc13)-c1ccccc1CC21CCCCC1
Potency [1]: active: 3.16 µM

COC(=O)c1[nH]c2cc(OC)ccc2c1NC(=O)CN1CCOCC1
activity change, negative = inhibition [1]: inconclusive: 22.4%

COc1ccc(C2=NOC(C(=O)NCCCN3CCOCC3)C2)cc1 (configuration not stated)
activity change, negative = inhibition [1]: inconclusive: 7.36%

CCCn1c(C)nc2c(NCCCCN(CC)CC)nc(C)nc21
Potency [1]: inconclusive: 10 µM [rising, partial curve]

CCOC(=O)Cn1c(=O)c2c(nc3n2CCN3c2ccc(C)cc2)n(C)c1=O
activity change, negative = inhibition [1]: inconclusive: 27.4%

COc1cccc(Cn2c(=O)c(CCc3ccccc3)nc3cnc(N(C)C)nc32)c1
Potency [1]: active: 6.31 µM

COc1ccccc1-c1nc(NCCc2cnc[nH]2)c2ccccc2n1
activity change, negative = inhibition [1]: inconclusive: 26.7%

Cc1csc(NC(=O)CSc2nc3sc(C)c(C)c3c(=O)[nH]2)n1
Potency [1]: inconclusive: 15.8 µM [rising, single point]

C#CCCCC(=S)Nc1ccccc1
Potency [1]: inactive

O=c1cc(-c2ccc(O)cc2)oc2cc(O)cc(O)c12
Potency [1]: inconclusive: 7.94 µM [falling, partial curve] and inconclusive: 25.1 µM [falling, partial curve] | activity change, negative = inhibition [1]: inconclusive: -29.2% [at 17.1 µM] | activity change, negative = inhibition (at 38.2 µM (top of the series)): inactive: -12.5%

CCCCC(CC)CNS(=O)(=O)c1ccc2c(c1)CCN2C(=O)CCC(=O)O (configuration not stated)
Potency [1]: inconclusive: 2.51 µM [rising, partial curve]

O=c1c2c3nc4ccccc4nc3n(-c3ccc4c(c3)OCCO4)c2ncn1C1CCCC1
Potency [1]: inconclusive: 12.6 µM [rising, single point]

Cc1cnc(CNc2ncncc2-c2ccc3c(c2)OCO3)cn1
activity change, negative = inhibition [1]: inconclusive: 3.69%

C[C@]12CC[C@H]3c4ccc(O)cc4CC[C@@H]3[C@H]1C/C(=N/O)[C@H]2O
activity change, negative = inhibition [1]: inactive: -16.1% [at 7.6 µM]

COc1ccc(CNc2ncnc3ccc(-c4ccc(N(C)C)cc4)cc23)c(OC)c1
activity change, negative = inhibition [1]: inconclusive: 29.1%

O=C(CSc1nnc(-c2ccco2)n1Cc1ccccc1)c1ccc(F)cc1
Potency [1]: inactive

Clc1ccccc1C1=Nn2c(nnc2-c2ccncc2)SC1
Potency [1]: inconclusive: 10 µM [falling, partial curve]

O=C(c1cc2nc(-c3ccccc3)cc(-c3ccccc3)n2n1)N1CCN(C(=O)c2ccco2)CC1
Potency [1]: active: 3.16 µM

CC(=O)c1ccc(N2CCN(C(=O)c3cc4c(-c5ccccc5F)nn(C)c4s3)CC2)cc1
Potency [1]: inconclusive: 2.51 µM [rising, full curve]

CC1=C(C(=O)OCc2ccccc2)C(c2ccc(C(C)(C)C)cc2)NC(=O)N1CCCCCC(=O)O (configuration not stated)
Potency [1]: inconclusive: 10 µM [rising, partial curve]

COc1cccc(C2C(C(=O)NCc3ccccc3)=C(C)Nc3ncnn32)c1 (configuration not stated)
Potency [1]: inactive

COc1cc(Br)cc(/C=N/c2ncn[nH]2)c1O
activity change, negative = inhibition [1]: inconclusive: -3.4% [at 7.6 µM]

CCCCCCCCCCCCCCCC(=O)NC(C)C
Potency [1]: inactive

CCCCn1c(SCC(=O)N2CCCc3ccccc32)nc2c1c(=O)n(C)c(=O)n2C
Potency [1]: inactive

COc1ccccc1NC(=O)CN1CCN(CC(=O)Nc2ccc(Cl)c(C(F)(F)F)c2)CC1
activity change, negative = inhibition [1]: inconclusive: -17.4%

COc1cc(NC(=O)CN2CCN(S(=O)(=O)c3ccc(C(C)C)cc3)CC2)cc(OC)c1
activity change, negative = inhibition [1]: inconclusive: 10.4%

O=C(CCCc1nc(-c2ccccc2)no1)Nc1cccnc1
activity change, negative = inhibition [1]: inconclusive: -12.1%

COc1ccc(CCNc2oc(Cc3ccccc3)nc2C#N)cc1OC
Potency [1]: active: 10 µM

O=C(Cn1nnc(-c2ccccc2)n1)Nc1ccccc1N1CCOCC1
Potency [1]: inconclusive: 12.6 µM [rising, single point]

c1ccc2c(c1)oc1c(Nc3ccc(CN4CCOCC4)cc3)ncnc12
Potency [1]: inconclusive: 25.1 µM [falling, single point]

CC1(C)N=C(N)N=C(N)N1c1cccc(CSc2ccccc2)c1
activity change, negative = inhibition [1]: inactive: 12.2% [at 7.6 µM]

Cc1cc(C)n(C(=O)c2cccc(S(=O)(=O)N3CCOCC3)c2)n1
activity change, negative = inhibition [1]: inconclusive: 9.37%

CCN(CC)CCCN(Cc1cc2cc(OC)ccc2[nH]c1=O)C(=O)Nc1ccccc1
Potency [1]: inactive

CCCCOc1ccccc1C(=O)NCC(=O)O
Potency [1]: inactive

CCCc1[nH]nc2c1C(c1ccncc1)C(C#N)=C(N)O2 (configuration not stated)
activity change, negative = inhibition [1]: inconclusive: 6.87%

Cc1ccc(C)n1-c1ccc(C(=O)N2CCOCC2)cc1
Potency [1]: inactive

COc1ccc(-c2ccc(SCC(=O)N3CCOCC3)nn2)cc1OC
Potency [1]: inconclusive: 12.6 µM [rising, single point]

CCOc1cc2oc(=O)c3c(c2cc1Cl)CCC3
Potency [1]: inconclusive: 10 µM [rising, partial curve, poor fit]

Cc1cc2oc(C(=O)N(Cc3ccco3)C3CCS(=O)(=O)C3)cc(=O)c2cc1Cl (configuration not stated)
Potency [1]: inconclusive: 12.6 µM [rising, single point]

COc1ccc(-c2noc(-c3ccco3)n2)cc1OC
Potency [1]: inconclusive: 3.98 µM [rising, partial curve]
